Results from a collection of fitness landscapes (doi:10.1126/science.1257360).
The list shows a part of the results.

B1: PhoQ; a variant is named by its letters at X, in order, P23837 (parent)
chain: MKKLLRLFFPLSLRVRFLLATAAVVLVLSLAYGMVALIGYSVSFDKTTFRLLRGESNLFYTLAKWENNKLHVELPENIDKQSPTMTLIYDENGQLLWAQRDVPWLMKMIQPDWLKSNGFHEIEADVNDTSLLLSGDHSIQQQLQEVREDDDDAEMTHSVAVNVYPATSRMPKLTIVVVDTIPVELKSSYMVWSWFIYVLSANLLLVIPLLWVAAWWSLRPIEALAKEVRELEEHNRELLNPATTRELTSLVRNLNRLLKSERERYDKYRTTLTDLTHSLKTPLXXLQXXLRSLRSEKMSVSDAEPVMLEQISRISQQIGYYLHRASMRGGTLLSRELHPVAPLLDNLTSALNKVYQRKGVNISLDISPEISFVGEQNDFVEVMGNVLDNACKYCLEFVEISARQTDEHLYIVVEDDGPGIPLSKREVIFDRGQRVDTLRPGQGVGLAVAREITEQYEGKIVAGESMLGGARMEVIFGRQHSAPKDE

Variants of: B1
Assay: enrichment ratio after two sorts for PhoP signalling (ratio (wild type AVST 3.29)); higher = more functional
Details: with PhoP (E. coli)

| Variant | enrichment ratio |
| --- | --- |
| HKNG | ≤ 0.25 |
| WLWH | ≤ 0.25 |
| YCPI | ≤ 0.25 |
| EVNW | ≤ 0.25 |
| KCLF | ≤ 0.25 |
| DIDS | ≤ 0.25 |
| SFGE | ≤ 0.25 |
| ECIG | ≤ 0.25 |
| WQGD | ≤ 0.25 |
| IFLM | ≤ 0.25 |
| FQQF | ≤ 0.25 |
| DIEF | ≤ 0.25 |
| NPQD | ≤ 0.25 |
| GHNA | ≤ 0.25 |
| FFDQ | ≤ 0.25 |
| ESAD | ≤ 0.25 |
| MMML | ≤ 0.25 |
| ADKH | ≤ 0.25 |
| KFFW | ≤ 0.25 |
| GAEF | ≤ 0.25 |
| VCLV | 13 |
| PYIF | 0.283 |
| ITSE | ≤ 0.25 |
| RGGQ | ≤ 0.25 |

| Variant | enrichment ratio |
| --- | --- |
| SELH | 19.4 |
| YGSP | ≤ 0.25 |
| VFPE | ≤ 0.25 |
| FLFI | ≤ 0.25 |
| LPVD | ≤ 0.25 |
| SPPM | ≤ 0.25 |
| STER | ≤ 0.25 |
| HEWS | ≤ 0.25 |
| NVIR | ≤ 0.25 |
| DHGN | ≤ 0.25 |
| RTSC | ≤ 0.25 |
| EPDF | ≤ 0.25 |
| KISE | ≤ 0.25 |
| DKHQ | ≤ 0.25 |
| QWQL | ≤ 0.25 |
| FHPD | ≤ 0.25 |
| YTFN | ≤ 0.25 |
| FQVY | ≤ 0.25 |
| QNQL | ≤ 0.25 |
| GLPT | ≤ 0.25 |
| MYRV | ≤ 0.25 |
| VTNK | ≤ 0.25 |
| NKTM | ≤ 0.25 |
| NKRM | ≤ 0.25 |

| Variant | enrichment ratio |
| --- | --- |
| RQCC | ≤ 0.25 |
| WNAG | ≤ 0.25 |
| RRVD | ≤ 0.25 |
| TFHI | ≤ 0.25 |
| TNIW | ≤ 0.25 |
| PMPL | ≤ 0.25 |
| SWYR | ≤ 0.25 |
| MFAY | ≤ 0.25 |
| TTEP | ≤ 0.25 |
| PWHD | ≤ 0.25 |
| VKAM | ≤ 0.25 |
| LLLR | ≤ 0.25 |
| FNMN | ≤ 0.25 |
| YQYK | ≤ 0.25 |
| TWQP | ≤ 0.25 |
| YAHC | ≤ 0.25 |
| YQFM | ≤ 0.25 |
| GSVH | ≤ 0.25 |
| HLIC | ≤ 0.25 |
| GSRF | 0.652 |
| LTGF | ≤ 0.25 |
| DTQQ | ≤ 0.25 |
| IEIN | ≤ 0.25 |
| PHRC | ≤ 0.25 |

| Variant | enrichment ratio |
| --- | --- |
| LHDK | ≤ 0.25 |
| MTFQ | 4.54 |
| IRPN | ≤ 0.25 |
| WDVG | ≤ 0.25 |
| MNVC | ≤ 0.25 |
| STRT | ≤ 0.25 |
| EMMM | ≤ 0.25 |
| AISF | 13.4 |
| TRLN | 4.05 |
| RPYW | ≤ 0.25 |
| AEGN | 12.2 |
| TEND | 23.1 |
| QGSA | 4.04 |
| IEFF | ≤ 0.25 |
| VGAN | ≤ 0.25 |
| LTRL | ≤ 0.25 |
| VILT | ≤ 0.25 |
| YSNC | ≤ 0.25 |
| ASTM | 12.3 |
| DRCH | ≤ 0.25 |
| DKYV | ≤ 0.25 |
| VNDG | ≤ 0.25 |
| WLNK | ≤ 0.25 |
| DSLY | ≤ 0.25 |

| Variant | enrichment ratio |
| --- | --- |
| SLRS | ≤ 0.25 |
| TCFM | ≤ 0.25 |
| DIHA | ≤ 0.25 |
| KLMH | 1.9 |
| LRTQ | ≤ 0.25 |
| NHNC | ≤ 0.25 |
| RIID | ≤ 0.25 |
| QIDD | ≤ 0.25 |
| SYMM | 0.307 |
| VIAF | ≤ 0.25 |
| MSLA | 5.33 |
| HDTM | ≤ 0.25 |
| PGNN | ≤ 0.25 |
| KMGT | ≤ 0.25 |
| KDTM | ≤ 0.25 |
| DDCP | ≤ 0.25 |
| SRVG | ≤ 0.25 |
| RCLE | ≤ 0.25 |
| MPTG | ≤ 0.25 |
| PRFA | ≤ 0.25 |
| QTHR | ≤ 0.25 |
| SFYW | ≤ 0.25 |
| MMDV | ≤ 0.25 |
| QRTG | ≤ 0.25 |

| Variant | enrichment ratio |
| --- | --- |
| DVWH | ≤ 0.25 |
| PHAM | ≤ 0.25 |
| FWMP | ≤ 0.25 |
| FGKP | ≤ 0.25 |
| APAV | ≤ 0.25 |
| LMRW | ≤ 0.25 |
| HNSI | ≤ 0.25 |
| WTWD | ≤ 0.25 |
| HDNP | ≤ 0.25 |
| CDLS | ≤ 0.25 |
| QQAH | ≤ 0.25 |
| EMPA | ≤ 0.25 |
| ASGK | ≤ 0.25 |
| AMRT | ≤ 0.25 |
| MYHA | ≤ 0.25 |
| TLEW | ≤ 0.25 |
| PKVW | ≤ 0.25 |
| VHTQ | ≤ 0.25 |
| WQHH | ≤ 0.25 |
| FETS | ≤ 0.25 |
| VWEK | ≤ 0.25 |
| SKYY | ≤ 0.25 |
| HARK | ≤ 0.25 |
| FFLI | ≤ 0.25 |

| Variant | enrichment ratio |
| --- | --- |
| HTCI | ≤ 0.25 |
| EFFR | ≤ 0.25 |
| HFAH | ≤ 0.25 |
| MEDN | ≤ 0.25 |
| VCCQ | ≤ 0.25 |
| RERD | ≤ 0.25 |
| GHTD | ≤ 0.25 |
| PRCV | ≤ 0.25 |
| DFFR | ≤ 0.25 |
| YSEM | ≤ 0.25 |
| PSHD | 2.1 |
| PVRY | ≤ 0.25 |
| VFYC | ≤ 0.25 |
| VVSL | ≤ 0.25 |
| PNMI | ≤ 0.25 |
| VQSD | ≤ 0.25 |
| YCWR | ≤ 0.25 |
| LEHY | ≤ 0.25 |
| SNAG | 6.91 |
| DNTK | ≤ 0.25 |
| DHCV | ≤ 0.25 |
| IDWF | ≤ 0.25 |
| GNTP | ≤ 0.25 |
| QATT | ≤ 0.25 |

| Variant | enrichment ratio |
| --- | --- |
| PIHI | ≤ 0.25 |
| ICGI | ≤ 0.25 |
| GNQC | ≤ 0.25 |
| KHKC | ≤ 0.25 |
| TWNM | ≤ 0.25 |
| DWMA | ≤ 0.25 |
| GIGV | ≤ 0.25 |
| GERS | ≤ 0.25 |
| TWKV | ≤ 0.25 |
| NCGN | ≤ 0.25 |
| NCIL | ≤ 0.25 |
| HNWM | ≤ 0.25 |
| FSCN | ≤ 0.25 |
| YRDI | ≤ 0.25 |
| SAQN | ≤ 0.25 |
| SYTP | ≤ 0.25 |
| WPWC | ≤ 0.25 |
| PYCH | ≤ 0.25 |
| SPIL | ≤ 0.25 |
| PTIG | ≤ 0.25 |
| MRYP | ≤ 0.25 |
| RQLQ | ≤ 0.25 |
| LSYA | ≤ 0.25 |
| VWGY | ≤ 0.25 |

| Variant | enrichment ratio |
| --- | --- |
| MNDD | ≤ 0.25 |
| GRWI | ≤ 0.25 |
| IRWP | ≤ 0.25 |
| PVAM | ≤ 0.25 |
| NRCE | ≤ 0.25 |
| QGFK | ≤ 0.25 |
| TVRN | ≤ 0.25 |
| LIFD | ≤ 0.25 |
| HQEN | ≤ 0.25 |
| WILR | ≤ 0.25 |
| PCVN | ≤ 0.25 |
| TPFC | ≤ 0.25 |
| CYLT | ≤ 0.25 |
| WQGT | ≤ 0.25 |
| FHAE | ≤ 0.25 |
| QFAV | ≤ 0.25 |
| WDWA | ≤ 0.25 |
| DMCI | 1.54 |
| FYGE | ≤ 0.25 |
| KGYA | ≤ 0.25 |
| SAYC | ≤ 0.25 |
| MSFQ | 7.78 |
| HRRL | ≤ 0.25 |
| RGNC | ≤ 0.25 |

| Variant | enrichment ratio |
| --- | --- |
| YEYF | 0.947 |
| QCFV | ≤ 0.25 |
| TPEK | ≤ 0.25 |
| LWTW | ≤ 0.25 |
| RCDN | ≤ 0.25 |
| HHQI | ≤ 0.25 |
| LNRV | ≤ 0.25 |
| PIPR | ≤ 0.25 |
| MAWQ | ≤ 0.25 |
| FYLA | ≤ 0.25 |
| KIDN | ≤ 0.25 |
| NITW | ≤ 0.25 |
| WRTV | ≤ 0.25 |
| AMGQ | 13.7 |
| HEGI | ≤ 0.25 |
| NNYR | ≤ 0.25 |
| ARQK | ≤ 0.25 |
| PCYQ | ≤ 0.25 |
| DRYR | ≤ 0.25 |
| TQVM | 1.97 |
| INSL | 0.38 |
| NNRW | ≤ 0.25 |
| DYCN | ≤ 0.25 |
| NQAF | ≤ 0.25 |

| Variant | enrichment ratio |
| --- | --- |
| VNHL | ≤ 0.25 |
| HGNV | ≤ 0.25 |
| SYRW | ≤ 0.25 |
| KFRW | ≤ 0.25 |
| YIRI | ≤ 0.25 |
| IEHD | ≤ 0.25 |
| LLCF | ≤ 0.25 |
| GHHI | ≤ 0.25 |
| HFTM | ≤ 0.25 |
| MLRL | ≤ 0.25 |
| KPYV | ≤ 0.25 |
| DMKN | ≤ 0.25 |
| RDLW | ≤ 0.25 |
| EQIK | ≤ 0.25 |
| NGFF | ≤ 0.25 |
| IPGM | ≤ 0.25 |
| MYEH | ≤ 0.25 |
| RAPA | ≤ 0.25 |
| VEPR | ≤ 0.25 |
| GRFM | ≤ 0.25 |
| QAPQ | ≤ 0.25 |
| TQLL | 18.9 |
| YIFW | ≤ 0.25 |
| TNFN | ≤ 0.25 |

| Variant | enrichment ratio |
| --- | --- |
| WRCF | ≤ 0.25 |
| ILAA | ≤ 0.25 |
| MPYD | ≤ 0.25 |
| LMES | ≤ 0.25 |
| IGNF | ≤ 0.25 |
| TIYV | 16.6 |
| NCLM | 0.542 |
| HWEF | ≤ 0.25 |
| EWLP | ≤ 0.25 |
| NQNK | ≤ 0.25 |
| FNMA | ≤ 0.25 |
| DGRF | ≤ 0.25 |
| TSWI | 3.63 |
| RPSD | ≤ 0.25 |
| MMAN | 3.04 |
| EQVF | ≤ 0.25 |
| ICEM | ≤ 0.25 |
| IAGD | ≤ 0.25 |
| NQQV | ≤ 0.25 |
| DDIW | ≤ 0.25 |
| VPRE | ≤ 0.25 |
| VCTR | ≤ 0.25 |
| QMNV | ≤ 0.25 |
| RSVP | ≤ 0.25 |

| Variant | enrichment ratio |
| --- | --- |
| YKIR | ≤ 0.25 |
| MGPQ | ≤ 0.25 |
| IPAC | ≤ 0.25 |
| SSSK | ≤ 0.25 |
| WMMK | ≤ 0.25 |
| MAPV | ≤ 0.25 |
| YDPG | ≤ 0.25 |
| KFQT | ≤ 0.25 |
| MNNW | ≤ 0.25 |
| MCMS | ≤ 0.25 |
| SEWL | 3.45 |
| LRPA | ≤ 0.25 |
| DNEY | ≤ 0.25 |
| QPMG | ≤ 0.25 |
| RARA | ≤ 0.25 |
| ALTV | 5.78 |
| TSID | ≤ 0.25 |
| PNRC | ≤ 0.25 |
